Assay results published in ChEMBL document CHEMBL4888484, “Replenishing the malaria drug discovery pipeline: Screening and hit evaluation of the MMV Hit Generation Library 1 (HGL1) against asexual blood stage Plasmodium falciparum ,using a nano luciferase reporter read-out” (2022).
Out of some 150,000 compounds screened, about 540 (0.36%) showed an effect of 50% or more. This is one part of the list.

System: Plasmodium falciparum
Test: Primary screen in NF54 nanoGlo assay, in single point, at 2uM, 72h; a lower Z score goes with more inhibition
Type: functional, Erythrocyte
Conditions: timepoint 72 hour

Compound	% Inhibition [%]	Z score
CS(=O)(=O)CCN1CCC(NC(=O)c2c[nH]nc2-c2ccccc2)CC1	-3	0.52
CCc1onc(C)c1NC(=O)NCc1ccccc1CC(F)(F)F	-4	0.73
CCOc1ccc(C(=O)C(CCC(CN2CCCCC2)C(=O)c2ccc(OCC)cc2)CN2CCCCC2)cc1 (stereo unspecified)	-5	0.69
Cn1c(=O)[nH]c(=O)c2nc(/C=C(\O)c3ccc(C(F)(F)F)cc3)c(O)nc21	9	-1.16
CCOC(=O)N1CCC(Nc2nc3c(-c4ccccc4)nnn3c3ccccc23)CC1	-11	1.56
CCN(c1ccccc1)c1ccc(CNCc2nc(-c3cccnc3)n[nH]2)cc1	-4	0.63
Cc1nn(CCc2nc3c4cn[nH]c4ncn3n2)c(C)c1Cl	4	-0.61
C[C@@H](CCCC(C)(C)O)CCNCCC1(O)CCCC1	-11	1.6
Cc1cccc(C2CC(C(=O)NCc3cccc(F)c3)CN(Cc3ccccc3F)C2)c1 (stereo unspecified)	-7	0.67
CN1CCC2(CCN(C(=O)c3ccc4c(c3)OCCO4)CC2)C1=O	-23	3.03
Cc1ccc(-c2nn(-c3ccccc3)cc2C(=O)N2CC[C@H](CN)C2)o1	-1	0.21
CCC(=O)Nc1ccc2c(c1)c(=O)n(-c1ccccc1)n2CC(=O)NC1CCCC1	-16	2.03
Cc1[nH]c(=O)c(C#N)c(C)c1CCC(=O)NC(C)CN1CCCC(C)C1 (stereo unspecified)	6	-0.54
O=C(c1cc(C2CCCCC2)n[nH]1)N1CC2(CCC2)[C@@H]1C1CCOCC1	-18	1.54
O=C(CCC1CCOCC1)Nc1ccc(C(=O)O)cc1	-5	0.54
CCC(=O)Nc1cc(-c2cc3ccccc3o2)nn1CCO	-1	0.16
COc1ccc(-c2cnc3ncnn3c2N2CCCN(S(=O)(=O)c3cccc(F)c3)CC2)cc1OC	-4	0.81
COc1ccccc1NC[C@H](O)Cn1c2c(c3cc(C)ccc31)CCCC2	10	-1.35
O=C(NCC(=O)N1Cc2ccccc2C1)NC1(CF)CCC1	-11	2.13
CCn1c(CC2CCN(Cc3ccc4nonc4c3)CC2)nn(C)c1=O	-5	0.92
CCCC[C@@H](C(=O)Nc1cc(C)on1)N1CCC(C(N)=O)CC1	-14	1.31

Compound	% Inhibition [%]	Z score
CC(C)(C)C1CNC(=O)C1C(=O)Nc1ccc(CCO)cc1 (stereo unspecified)	3	-0.48
Cc1ccc2c(=O)n([C@@H](C)Cc3cccnc3)cnc2c1	-8	1.12
O=C(Nc1nncs1)c1ccccc1NS(=O)(=O)c1ccc(Br)cc1	14	-1.69
c1ccc2[nH]c(-c3cn(CCCN4CCOCC4)nn3)nc2c1	-4	0.56
CN(Cc1ccc(-n2cccn2)cc1)C(=O)c1cn(Cc2ccccc2Cl)nn1	-9	1.38
CCCC[C@H](CC)C(=O)Nc1ccc(F)cc1F	-4	0.49
O=C1C[C@H](NC2CCN(c3ncccn3)CC2)C(=O)N1c1ccc(Cl)cc1	-9	0.98
O=C1CC[C@@H](C(=O)OCc2csc(-c3ccccc3)n2)N1	-17	1.69
Cc1ccc(-n2nc(C3CC3)nc2C2CC2)c(C)c1	-13	1.66
Cc1cccc(-n2nnnc2C2(NCCc3ccccc3)CCCC2)c1	-8	1.14
Cc1nc(O)nc(O)c1S(=O)(=O)N1CCC(C(=O)NC2CCCCCCC2)CC1	-10	1.28
CN(C)[C@@H](CNC(=O)Cc1ccsc1)c1ccsc1	-32	3.24
CC(C(=O)N1C[C@@H](F)C[C@H]1CO)n1cccn1 (stereo partly specified)	-9	1.44
Cc1ccccc1C(C)(C)Cn1nnnc1N1CCC(C(N)=O)CC1	-8	0.92
O=C(NCc1ccc(Cn2cccn2)cc1)N1CC[C@@]12CCOC2	-12	1.35
COC1(C)CC(N(C)C(=O)C2CCc3[nH]nnc3C2)C1(C)C (stereo unspecified)	-4	0.38
CCC(NC(=O)C(C)=Cc1ccco1)C(O)C(C)C (stereo unspecified)	-11	2.13
COc1cc2c(cc1OC)C(C(C)NC(=O)c1ccccc1C)N(Cc1ccc(C)cc1)CC2 (stereo unspecified)	12	-1.12
Cc1ccccc1CN[C@@H](CCO)C(C)(C)C	-3	0.53
Cc1ccc(-c2nc3ccc(C(=O)NCc4ccc(Cl)cc4)cc3nc2-c2ccc(C)cc2)cc1	3	-0.53
COc1ccc(C(=O)C(=O)Nc2ncccc2C)cc1	-12	1.66

Compound	% Inhibition [%]	Z score
COCCN1C(=O)CC[C@]2(CNC(=O)CC3CCCCC3)CCC[C@@H]12	2	-0.23
O=C(NCc1nnc2n1CCCC[C@H]2C1CCOCC1)c1ccco1	-8	1.29
CO[C@@H](C(=O)NCC1CCN(C(=O)c2n[nH]nc2C)CC1)c1ccccc1	-8	1.43
Cc1ccc(C2(c3noc(CN4CCN(Cc5nccn5C)CC4)n3)CCCC2)cc1	-3	0.34
O=C(O)C[C@@H]1CCN(CCCc2ccccc2)C[C@@H]1Cc1nc2ccc(F)cc2[nH]1	-16	2.99
Cc1nc(-c2cc(S(=O)(=O)Nc3ccc(F)c(Cl)c3)c(C)s2)sc1C	-13	1.62
N#Cc1cccc(C(=O)N2CCC(NC(=O)NC3CC3)CC2)c1	-6	0.82
CCNC(=NCCOc1ncccc1Cl)NCC	5	-0.91
CCn1nnc2cc(C(=O)N3CCCCCCC3)ccc21	-10	1.9
O=C(NCC1(CO)CCCC1)c1ccc(CO)o1	3	-0.49
CCn1nc(CCOC)nc1-c1ccc2nccnc2c1	-1	0.14
CCc1nc(N)sc1C(=O)N1CC[C@](C)(O)[C@H](CC(C)C)C1	-2	0.36
CCn1cc(CN2C[C@H]3CC[C@@H](C2)N(CC=C(C)C)C3)cn1	-2	0.19
Cc1ccc(-n2ncc3c(=O)n(CC(=O)N(C)c4ccccc4)cnc32)c(C)c1	8	-1.09
O=C(Nc1ccnn1C1CCN(CCCn2cccn2)CC1)C1CCCC1	9	-1.09
Cn1nncc1C1(O)CN(c2nccc(Oc3ccccc3)n2)C1	-1	0.16
Clc1ccc(CCNc2nc(-c3nnc(-c4ccccc4)o3)nc3ccccc23)cc1	1	-0.1
COc1ccc(CN2CCC[C@H](n3c(C)cnc3-c3ccncc3)C2)cc1C	3	-0.31
O=C(Cn1cccn1)N1CCCS(=O)(=O)C[C@H]1c1ccccc1	-11	1.47
COCCN(C[C@H]1CCCN2CCCC[C@@H]12)C(=O)CCc1nc2ccccc2c(=O)[nH]1	-4	0.46
O=C(c1nn(-c2ccccc2)c(=O)c2ccccc12)N1CCCC1	-2	0.32

Compound	% Inhibition [%]	Z score
CCN(C(=O)c1cc(-c2ccc(F)cc2)[nH]n1)[C@H]1CCS(=O)(=O)C1	6	-0.83
COC(=O)[C@H](C)N(Cc1cncnc1)C1CCC1	3	-0.43
Cc1cc(CN2CCN(S(=O)(=O)N3CCC(C)CC3)CC2)on1	-5	0.92
Cc1ccc(CN2CCCn3nc(CN4CCNC(=O)C4)cc3C2)s1	2	-0.19
COc1ccc(CN2C(=O)N[C@@H](CC(=O)N3CCN(c4ccccn4)CC3)C2=O)cc1	-5	0.68
CO[C@H]1COC[C@@H]1NC(=O)Cc1cccs1	-2	0.42
O=c1n(-c2ccc(Cl)cc2)c(=O)n2n1C1CCC2C1	-23	2.71
O=C(c1ccc(-c2noc(C(F)(F)F)n2)cc1)N1CCC1	29	-3.23
CCN(C(=O)c1ccco1)c1nc(-c2ccc(C3CCCCC3)cc2)cs1	-15	2.29
CCOc1ccc(S(=O)(=O)N2CCc3c([nH]c4ccccc34)[C@H]2c2ccc(C)cc2)cc1	5	-0.58
COCC(=O)N[C@H]1CN(c2nc(C)c(C)c(C)c2C#N)C[C@@H]1C1CC1	3	-0.64
c1nc(N2C[C@@H]3CCCC[C@@H]32)c2cc[nH]c2n1	-7	1.28
Cc1cc(NC(=O)c2ccc(-c3cc(C(F)(F)F)ccc3Cl)o2)no1	-13	2.5
CN1C(=O)[C@]2(CCN(C(=O)Nc3ccc4c(c3)OCCO4)C2)c2ccccc21	9	-1.17
O=C(Nc1cnn2ccccc12)[C@H]1CC[C@H](Nc2cnccn2)CC1	9	-1.19
CN(C(=O)c1ccccc1C(F)(F)F)C1COCC1O (stereo unspecified)	-11	1.43
COc1ccc(C(=O)NCCc2nc(C(C)C)cs2)o1	-8	1.53
Cc1ccc(-c2n[nH]c(NS(=O)(=O)c3c(C)nn(C)c3C)c2C)o1	29	-3.88
COc1ccc([C@H]2C[C@H]3CC[C@@H](C2)N3C(=O)Cc2cc(C)no2)cc1	25	-2.89
CC(NC(=O)[C@@H]1CC[C@H](C(=O)O)C1)c1ncc(-c2ccccc2)o1 (stereo partly specified)	-10	1.84
